# Source: patent US20250289788A1, “HALOALKYL SULFONANILIDE COMPOUND AND HERBICIDE CONTAINING THE SAME” (SDS BIOTECH K.K., priority 2022, published 2025)
# Some of these results come from one statement about several compounds together. At least one compound was matched to its structure with a doubt left.
# What was measured:
# [1] = system: Monochoria vaginalis (MV); assay: Test Example 1: herbicidal effect test using paddy field flooding treatment; type: in vivo; conditions: water surface application, 21 days after treatment
# [2] = system: Ammannia multiflora (AM); assay: as above; type: in vivo; conditions: water surface application, 21 days after treatment
compound,measurement,setting,value
CCc1ccc2c(c1)C(=O)N(Cc1ccccc1NS(=O)(=O)C(F)(F)F)CC2 [Compound 3-24],herbicidal efficacy (degree (%) of suppression of growth of terrestrial part),[1]; dose 250 g a.i./ha,≥ 80%
same,herbicidal efficacy (degree (%) of suppression of growth of terrestrial part),[2]; dose 16 g a.i./ha,≥ 80%
O=C1c2c(F)cc(F)cc2CCN1Cc1ccccc1NS(=O)(=O)C(F)(F)F [Compound 3-57],herbicidal efficacy (degree (%) of suppression of growth of terrestrial part),[1]; dose 250 g a.i./ha,≥ 80%
same,herbicidal efficacy (degree (%) of suppression of growth of terrestrial part),[2]; dose 16 g a.i./ha,≥ 80%
O=C1c2c(F)ccc(F)c2CCN1Cc1c(Cl)cccc1NS(=O)(=O)C(F)(F)F [Compound 4-22],herbicidal efficacy (degree (%) of suppression of growth of terrestrial part),[1]; dose 63 g a.i./ha,≥ 80%
same,herbicidal efficacy (degree (%) of suppression of growth of terrestrial part),[2]; dose 31 g a.i./ha,≥ 80%
Cc1cccc2c1C(=O)N(Cc1ccccc1NS(=O)(=O)C(F)(F)F)CCC2 [Compound 5-3],herbicidal efficacy (degree (%) of suppression of growth of terrestrial part),[1]; dose 125 g a.i./ha,≥ 80%
same,herbicidal efficacy (degree (%) of suppression of growth of terrestrial part),[2]; dose 250 g a.i./ha,≥ 80%
Nc1cccc2c1C(=O)N(Cc1ccccc1NS(=O)(=O)C(F)(F)F)C2 [Compound 2-26],herbicidal efficacy (degree (%) of suppression of growth of terrestrial part),[1]; dose 500 g a.i./ha,≥ 80%
O=C1c2cccc(OS(=O)(=O)C(F)(F)F)c2CCN1Cc1ccccc1NS(=O)(=O)C(F)(F)F [Compound 3-49],herbicidal efficacy (degree (%) of suppression of growth of terrestrial part),[2]; dose 63 g a.i./ha,≥ 80%
CN1Cc2ccccc2N(Cc2ccccc2NS(=O)(=O)C(F)(F)F)C1=O [Compound 9-3],herbicidal efficacy (degree (%) of suppression of growth of terrestrial part),[1]; dose 1000 g a.i./ha,≥ 80%
same,herbicidal efficacy (degree (%) of suppression of growth of terrestrial part),[2]; dose 1000 g a.i./ha,≥ 80%
O=C1c2c(F)ccc(F)c2CCN1Cc1ccccc1N(C(=O)C1CCCCC1)S(=O)(=O)C(F)(F)F [Compound 3-114],herbicidal efficacy (degree (%) of suppression of growth of terrestrial part),[1]; dose 250 g a.i./ha,≥ 80%
same,herbicidal efficacy (degree (%) of suppression of growth of terrestrial part),[2]; dose 16 g a.i./ha,≥ 80%
"O=S(=O)(Nc1ccccc1CN1CCc2c(F)ccc(F)c2C1=S)C(F)(F)F [Compound 7-2, N-[2-(N-trifluoromethanesulfonyl)aminobenzyl]-5,8-difluoro-3,4-dihydroisoquinoline-1(2H)-thione]",herbicidal efficacy (degree (%) of suppression of growth of terrestrial part),[1]; dose 125 g a.i./ha,≥ 80%
same,herbicidal efficacy (degree (%) of suppression of growth of terrestrial part),[2]; dose 16 g a.i./ha,≥ 80%
O=C1c2ccc(C(F)(F)F)cc2CCN1Cc1ccccc1NS(=O)(=O)C(F)(F)F [Compound 3-40],herbicidal efficacy (degree (%) of suppression of growth of terrestrial part),[2]; dose 63 g a.i./ha,≥ 80%
O=C1c2cc(O)ccc2CCN1Cc1ccccc1NS(=O)(=O)C(F)(F)F [Compound 3-29],herbicidal efficacy (degree (%) of suppression of growth of terrestrial part),[2]; dose 125 g a.i./ha,≥ 80%
C=C(C)C(=O)N(c1ccccc1CN1CCc2c(F)ccc(F)c2C1=O)S(=O)(=O)C(F)(F)F [Compound 3-118],herbicidal efficacy (degree (%) of suppression of growth of terrestrial part),[1]; dose 125 g a.i./ha,≥ 80%
same,herbicidal efficacy (degree (%) of suppression of growth of terrestrial part),[2]; dose 31 g a.i./ha,≥ 80%
O=C1c2c(F)ccc(F)c2CCN1Cc1cc(Cl)ccc1NS(=O)(=O)C(F)(F)F [Compound 4-17],herbicidal efficacy (degree (%) of suppression of growth of terrestrial part),[1]; dose 250 g a.i./ha,≥ 80%
same,herbicidal efficacy (degree (%) of suppression of growth of terrestrial part),[2]; dose 125 g a.i./ha,≥ 80%
O=C1c2c(F)ccc(F)c2CCN1Cc1ccccc1N(C(=O)c1ccccc1)S(=O)(=O)C(F)(F)F [Compound 3-120],herbicidal efficacy (degree (%) of suppression of growth of terrestrial part),[1]; dose 500 g a.i./ha,≥ 80%
same,herbicidal efficacy (degree (%) of suppression of growth of terrestrial part),[2]; dose 63 g a.i./ha,≥ 80%
O=C1c2ccc(F)c(F)c2CCN1Cc1ccccc1NS(=O)(=O)C(F)(F)F [Compound 3-84],herbicidal efficacy (degree (%) of suppression of growth of terrestrial part),[1]; dose 500 g a.i./ha,≥ 80%
same,herbicidal efficacy (degree (%) of suppression of growth of terrestrial part),[2]; dose 125 g a.i./ha,≥ 80%
Cc1cccc(NS(=O)(=O)C(F)(F)F)c1CN1CCc2c(F)ccc(F)c2C1=O [Compound 4-23],herbicidal efficacy (degree (%) of suppression of growth of terrestrial part),[1]; dose 250 g a.i./ha,≥ 80%
same,herbicidal efficacy (degree (%) of suppression of growth of terrestrial part),[2]; dose 125 g a.i./ha,≥ 80%
CS(=O)(=O)Oc1cccc2c1C(=O)N(Cc1ccccc1NS(=O)(=O)C(F)(F)F)C2 [Compound 2-17],herbicidal efficacy (degree (%) of suppression of growth of terrestrial part),[2]; dose 125 g a.i./ha,≥ 80%
CCOC(=O)Oc1cccc2c1CCN(Cc1ccccc1NS(=O)(=O)C(F)(F)F)C2=O [Compound 3-50],herbicidal efficacy (degree (%) of suppression of growth of terrestrial part),[2]; dose 63 g a.i./ha,≥ 80%
O=C1c2cc(OS(=O)(=O)C(F)(F)F)ccc2CN1Cc1ccccc1NS(=O)(=O)C(F)(F)F [Compound 2-36],herbicidal efficacy (degree (%) of suppression of growth of terrestrial part),[1]; dose 500 g a.i./ha,≥ 80%
same,herbicidal efficacy (degree (%) of suppression of growth of terrestrial part),[2]; dose 500 g a.i./ha,≥ 80%
O=C1c2cc(Cl)c(Cl)cc2CCN1Cc1ccccc1NS(=O)(=O)C(F)(F)F [Compound 3-79],herbicidal efficacy (degree (%) of suppression of growth of terrestrial part),[2]; dose 63 g a.i./ha,≥ 80%
O=C1c2c(cccc2OCC2CC2)CN1Cc1ccccc1NS(=O)(=O)C(F)(F)F [Compound 2-25],herbicidal efficacy (degree (%) of suppression of growth of terrestrial part),[2]; dose 250 g a.i./ha,≥ 80%
CC(=O)Oc1cccc2c1CCN(Cc1ccccc1NS(=O)(=O)C(F)(F)F)C2=O [Compound 3-47],herbicidal efficacy (degree (%) of suppression of growth of terrestrial part),[2]; dose 63 g a.i./ha,≥ 80%
O=C1c2cc([N+](=O)[O-])c(Cl)cc2CCN1Cc1ccccc1NS(=O)(=O)C(F)(F)F [Compound 3-83],herbicidal efficacy (degree (%) of suppression of growth of terrestrial part),[2]; dose 500 g a.i./ha,≥ 80%
Cc1ccc2c(c1Cl)C(=O)N(Cc1ccccc1NS(=O)(=O)C(F)(F)F)CC2 [Compound 3-56],herbicidal efficacy (degree (%) of suppression of growth of terrestrial part),[2]; dose 63 g a.i./ha,≥ 80%
CCOC(=O)N(c1ccccc1CN1C(=O)N(C)Cc2ccccc21)S(=O)(=O)C(F)(F)F [Compound 9-7],herbicidal efficacy (degree (%) of suppression of growth of terrestrial part),[2]; dose 1000 g a.i./ha,≥ 80%
O=C1c2cc(-c3ccccc3)ccc2CCN1Cc1ccccc1NS(=O)(=O)C(F)(F)F [Compound 3-26],herbicidal efficacy (degree (%) of suppression of growth of terrestrial part),[2]; dose 31 g a.i./ha,≥ 80%
